Data on 35 sequences can be found in the supplement of paper PMC10681739.

Whole data set: some 2,700 sequences, median “arbitrary fluorescence units” near 4,100, cut for the highest 2% near 54,000. Some of the results follow.

The target in the test is T1, ETS1 (UniProt P14921).
T1 sequence: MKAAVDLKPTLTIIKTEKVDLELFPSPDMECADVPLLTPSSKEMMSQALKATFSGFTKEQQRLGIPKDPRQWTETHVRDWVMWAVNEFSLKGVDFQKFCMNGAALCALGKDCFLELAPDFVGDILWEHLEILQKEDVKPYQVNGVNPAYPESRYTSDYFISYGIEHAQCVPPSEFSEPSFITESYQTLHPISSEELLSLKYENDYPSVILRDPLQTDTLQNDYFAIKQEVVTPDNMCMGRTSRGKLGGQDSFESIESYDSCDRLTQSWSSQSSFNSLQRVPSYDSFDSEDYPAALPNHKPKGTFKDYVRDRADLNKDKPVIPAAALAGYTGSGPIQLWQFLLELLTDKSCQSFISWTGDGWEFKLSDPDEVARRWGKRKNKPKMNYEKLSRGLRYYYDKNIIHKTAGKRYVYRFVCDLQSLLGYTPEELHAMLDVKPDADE
The experiment in a line: ETS1 binding intensity (PBM fluorescence) (arbitrary fluorescence units); higher = stronger binding. The following applies: ETS1 concentration 10 nM. The procedure:
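gcPBM on wild-type 36-bp genomic probes with two neighbouring ETS1 sites (4-24 bp apart). Recombinant human ETS1 (10 nM) was detected with anti-ETS1 antibody fluorescence. Values are medians over 3 replicate spots. The probes sit in constant array flanks that are not printed.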
CTGGCACTCTCTTCCGCCTCCTTCCTGCCTCCCTGT: the ETS1 binding intensity stood at 4730.

CGTCAGTCACCTCAGGAAGTTCCGCTTGCTTCTCGC: the ETS1 binding intensity was found to be 817.

TTAAAATGGCGGCGGAAGAGATCCGGGCGCCGCCTG had an ETS1 binding intensity of 377.

For the sequence CTCCGCACTCCCTTCCGGGACTTCCTCTCCCTGTCT, the ETS1 binding intensity worked out at 3720.

As to CTGTCACACAGGAAGACCACACAGGAAGACCAGGTG, the ETS1 binding intensity was found to be 1320.

Sequence CCCGCTACCTCTTCCTGCTCATTTCCTGCCAATCTT had an ETS1 binding intensity of 9940.

The sequence GACACTTCCTACAGAGATAAGCCAATATTTCCTGTT gave an ETS1 binding intensity of 14900.

As for TGCTTAGGAAATTGCCAGAGTGGACACATCCGTATG, the ETS1 binding intensity amounted to 192.

TTCCGACCGGAAGTGAGAAGAGGAGGAAGTTGGCTG gave an ETS1 binding intensity of 64200.

Consider CCAGTCACGCGGCTTCCGCTTCCGGTCGTGCCCTCT, for which the ETS1 binding intensity was determined as 35700.

Sequence CCATAAAGGATGTTTTGTGTGAATGTTTCCGGCTGC returned an ETS1 binding intensity of 1500.

The sequence TTCCTCTCCTTTCCGCGAGACCTTCCGCGGTTATCC gave an ETS1 binding intensity of 178.

As for TACCCATTTCTAAGGAAATAGGAAATAGTCTCACTT, the ETS1 binding intensity came to 226.

On to CCTGAAAGGATGTGCTCACTTTGCCTTTCCTGCCTG, for which the ETS1 binding intensity amounted to 1610.

Turning to AGTACCTTGGCACATCCTACTTCCCTTGCAACGAAT, the ETS1 binding intensity was determined as 2030.

Sequence CCCTCCAGGAAGTGCCCTGGGCAACTTCCTTGCTAA gave an ETS1 binding intensity of 7360.

AGTGGCTGGTTCCGCCACGCTGCCGGAAAGCGCCCC yielded an ETS1 binding intensity of 349.

As for ACTGGGTCGGCGGCTTCCTTCCGGCTCTGCGCTCCT, the ETS1 binding intensity came out at 3900.

Regarding GCAATTTCCGCGCGCACCCCTTAAACAGGAACTGTT, the ETS1 binding intensity was determined as 9840.

Sequence AAACAGGATATGGGTGACCTGGGAAACATCCCCAAA gave an ETS1 binding intensity of 3470.

In turn, CTCCCGCGACCGGAAGAGTCGCTTCCGCTCCCGCCC showed an ETS1 binding intensity of 15200.

Take AGAGAGTGCTCACGGAAACATCCTGCCCCTTAAAAC: the ETS1 binding intensity was 3470.

Turning to CTAGCCGGAGACCGGAAGCGGAAGCGCGCTTGTGTC, the ETS1 binding intensity amounted to 25100.

CGCCCAGCCGCTTCCTCGGCGCATCCGCCCACCCGC: the ETS1 binding intensity was 2120.

On to TCTGGGCCAGGAAACACACGTGCATCCTGCGCATGC, for which the ETS1 binding intensity came out at 905.

Sequence TCTGAACATCCTCTTCTGCTCTCTCTTTCCTGCCTT registered an ETS1 binding intensity of 5200.

Sequence ACAGCATCCGGAGCGCCGACGCGGGACCGGAAGTGA displayed an ETS1 binding intensity of 26000.

GGACAGGAAATGTTTACTGCCTGTGGCTTCCTGTCT displayed an ETS1 binding intensity of 8810.

TCTAATCAGACCACTTCCTTCCTGCTGCTTTGGTTT: the ETS1 binding intensity is 4210.

Take ACACACCCAGGATGCTCTCACCACTTCCCAGAGCCA: the ETS1 binding intensity is 337.

In the case of AGGCCGGCCCCAGCTTCCTTCCTGCTCTTCTGTCCC, the ETS1 binding intensity turned out to be 1840.

With CGCCACATCCTGCCACCAGCAGCCCCGGAAGACACT, the ETS1 binding intensity was determined as 32300.

TGCACCCAACCCGGAAATACTTCCTGTTTTAAAGTG returned an ETS1 binding intensity of 26500.

In turn, AACCACAAGGAAATGGGGAATATGGGGAAGTTGCGC came in with an ETS1 binding intensity of 288.

In turn, CCAATTCGGAAGTGCCAAATGCAACTTCCGGGCAGG displayed an ETS1 binding intensity of 9200.
